From article doi:10.1101/2022.05.24.493195 (bioRxiv, 2022)

Target: T161 phosphorylated CDK1 (full-length human CDK1) (human, UniProt P06493, phosphothreonine at T161)
Experiment: SEC

B1: Bovine cyclin A2, […] (domain or fragment)
chain: not shown
binding result: binds
